# Reference: PubChem BioAssay AID588591 (National Center for Advancing Translational Sciences (NCATS), 2011)
# In all, about 390,000 compounds went through this assay and about 4,700 (1.2%) were called active. The inconclusive results got no clear call from the source; some entries with a clear call stand among them for comparison. Calls come from the whole dose curve; as a rule, active = well fitted inhibition curve with a large enough effect; inconclusive = small, poorly fitted or top-dose-only effect, or another doubt; inactive = no such curve, though single readings can be large or run the other way. Potencies beside an inconclusive call are fits to weak or partial responses and may not hold up.
# Target: DNA polymerase eta (Homo sapiens) (UniProt Q9Y253)
# Assay: qHTS for Inhibitors of Polymerase Eta
# Details: recombinant Pol eta, fluorescent DNA replication assay; series mostly up to 114 µM; activity change, negative = inhibition: at the top concentration
# Outline: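 Pol eta (10 nM) was preincubated with compounds for 15 min at room temperature, after which fluorescent replication substrate (50 nM final) was added to start the reaction. Fluorescence was read kinetically at 0 and 10 min.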
# % is set by controls: 0 for no effect and ±100 for the full control effect; potency is the fitted concentration of half-maximal effect; tags give direction and shape of the fitted curve.
# UniProt Q9Y253, sequence (Q9Y253 whole entry, looked up): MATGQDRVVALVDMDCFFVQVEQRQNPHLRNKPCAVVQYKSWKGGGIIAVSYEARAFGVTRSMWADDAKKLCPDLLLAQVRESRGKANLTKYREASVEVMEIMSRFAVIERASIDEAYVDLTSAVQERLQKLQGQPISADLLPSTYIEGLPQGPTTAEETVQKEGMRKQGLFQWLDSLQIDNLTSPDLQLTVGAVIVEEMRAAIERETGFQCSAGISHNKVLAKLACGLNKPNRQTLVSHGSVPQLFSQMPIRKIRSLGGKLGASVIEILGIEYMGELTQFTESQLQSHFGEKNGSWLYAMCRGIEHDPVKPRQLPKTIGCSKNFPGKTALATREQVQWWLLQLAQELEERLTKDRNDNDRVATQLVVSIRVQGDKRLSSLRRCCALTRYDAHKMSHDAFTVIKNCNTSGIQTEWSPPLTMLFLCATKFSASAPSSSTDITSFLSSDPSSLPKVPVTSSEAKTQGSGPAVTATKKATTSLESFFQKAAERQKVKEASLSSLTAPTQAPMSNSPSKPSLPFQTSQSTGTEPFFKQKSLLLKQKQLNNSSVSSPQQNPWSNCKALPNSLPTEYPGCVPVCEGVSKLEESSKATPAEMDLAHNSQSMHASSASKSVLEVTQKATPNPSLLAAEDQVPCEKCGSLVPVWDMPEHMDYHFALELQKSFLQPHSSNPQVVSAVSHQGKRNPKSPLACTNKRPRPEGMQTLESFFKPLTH
Compound,Potency,"activity change, negative = inhibition"
CC1CCc2nc3ccc(S(=O)(=O)N4CCC(C(=O)NCc5ccccc5Cl)CC4)cc3c(C(=O)O)c2C1 (stereo unspecified),"inconclusive: 89.1 µM [inhibitor, partial curve, poor fit]",–
Fc1ccccc1/C=N/Nc1ncnc2ccccc12,"inconclusive: 79.4 µM [inhibitor, partial curve, poor fit]",–
CCOC(=O)c1ccc(NC(=O)c2nc[nH]c2C(=O)N[C@@H](CC(C)C)C(=O)OC(C)(C)C)cc1,"inconclusive: 70.8 µM [inhibitor, partial curve, poor fit]",–
CC(C)(CCl)C(=O)Nc1ccc(Sc2ccc(F)cc2)cc1,"inconclusive: 39.8 µM [inhibitor, partial curve, poor fit]",–
CCc1ccc(S(=O)(=O)/N=C2\C=C(Nc3ccc(O)cc3)C(=O)c3ccccc32)cc1,"inconclusive: 15.8 µM [inhibitor, full curve, poor fit]",–
CCOC(=O)c1cnn2c(N)c(C#N)nnc12,"inconclusive: 100 µM [inhibitor, single point]",–
CC1CC(C)CN(C(=O)c2ccc3c(c2NCCO)C(=O)c2ccccc2C3=O)C1 (stereo unspecified),"inconclusive: 44.7 µM [inhibitor, partial curve]",–
Cc1cc(-c2nc3ncccc3o2)ccc1NC(=O)c1ccc([N+](=O)[O-])o1,active: 50.1 µM,–
CC1(C)Cc2nc3sc4c(SCC(=O)NC(c5ccccc5)c5ccccc5)ncnc4c3cc2CO1,"inconclusive: 1.78 µM [inhibitor, partial curve, poor fit]",–
CCOc1cc2[nH]c(=S)n(Cc3ccc(C(=O)N4CCN(C)CC4)cc3)c(=O)c2cc1OCC,"inconclusive: 35.5 µM [inhibitor, single point]",–
CCSC1=NC2(CCN(C(=O)NC3CCCCC3)CC2)N=C1c1ccc(C)cc1,–,inactive: 3.24%
CC(C)c1ccc(OCC(=O)N2CCN(c3ccccn3)CC2)c(Br)c1,"inconclusive: 50.1 µM [inhibitor, partial curve, poor fit]",–
C(#Cc1ccccc1)C[N+]1(CC#Cc2cccc3ccccc23)CCCC1,"inconclusive: 100 µM [inhibitor, partial curve, poor fit]",–
C=C[C@]1(C)C=C2CCC3[C@](C)(CCC[C@@]3(C)C(=O)O)C2CC1 (stereo partly specified),"inconclusive: 89.1 µM [inhibitor, partial curve]",–
O=C(O)C1C2CCCCC2=C2CCCCC2C1C(=O)Nc1nccs1 (stereo unspecified),"inconclusive: 17.8 µM [inhibitor, partial curve]",–
CCc1nnc(NS(=O)(=O)c2ccc(NC(=S)NC(=O)/C=C/c3ccc(F)cc3)cc2)s1,"inconclusive: 50.1 µM [inhibitor, partial curve, poor fit]",–
